{
  "source": "paper PMC12090182",
  "about": "“Repurposing of the RIPK1-Selective Benzo[1,4]oxazepin-4-one Scaffold for the Development of a Type III LIMK1/2 Inhibitor” (ACS Chemical Biology, 2025)",
  "key": {"[1]": {"biological_target": "T1, GCN2(Kin.Dom.2,S808G) (Homo sapiens, UniProt Q9P2K8, S808G)", "assay": "biochemical", "assay_type": "binding", "conditions": "compound concentration 100 nM; Entrez EIF2AK4; read-out: Percent Control"}, "[2]": {"biological_target": "T1, GCN2(Kin.Dom.2,S808G)", "assay": "biochemical", "assay_type": "binding", "conditions": "read-out: Percent Control"}},
  "data": [
    {"smiles": "CN1C(=O)[C@@H](N2CCc3c(nn(Cc4ccccc4)c3C(N)=O)C2=O)COc2cc(Cl)ccc21", "note": "[Compound 10, (S)-2-benzyl-6-(8-chloro-5-methyl-4-oxo-2,3,4,5-tetrahydrobenzo[b][1,4]oxazepin-3-yl)-7-oxo-4,5,6,7-tetrahydro-2H-pyrazolo[3,4-c]pyridine-3-carboxamide]", "values": [
      {"measurement": "remaining activity at 0.1 µM", "setting": "[1]", "result": 100, "unit": "%"},
      {"measurement": "remaining activity at 1 µM", "setting": "[2]", "result": 100, "unit": "%"}
    ]}
  ]
}
